From a compilation of properties of binary mixtures (doi:10.1016/j.jct.2010.07.014)
The densities may have been worked out from excess volumes.

Test: xn = mol fraction of the nth substance listed
Conditions: 101 kPa

CCCC[n+]1ccccc1.F[B-](F)(F)F + CCO
mass density [kg/m3]
Conditions | 303.15 K | 313.15 K | 323.15 K
x2 = 0.072 | 1200.5 | – | 1186.9
x2 = 0.147 | 1189.4 | 1182.7 | 1175.7
x2 = 0.2229 | – | 1169.9 | –
x2 = 0.3295 | 1155.7 | 1148.8 | 1141.7
x2 = 0.4136 | 1135.9 | 1128.8 | –
x2 = 0.5006 | 1111.8 | 1104.6 | 1097.3
x2 = 0.5789 | – | – | 1071.2
x2 = 0.7074 | 1030.7 | 1023.2 | 1016
x2 = 0.8052 | – | 965.7 | 958.5
x2 = 0.8999 | 897.8 | 889.7 | –
x2 = 0.948 | 847.8 | 839.4 | 831.1

CCCC[n+]1ccccc1.F[B-](F)(F)F + CO
Conditions | mass density [kg/m3]
293.15 K, x2 = 0.2119 | 1195.3
293.15 K, x2 = 0.3113 | 1181.8
293.15 K, x2 = 0.3856 | 1170
293.15 K, x2 = 0.7044 | 1081.1
293.15 K, x2 = 0.9023 | 942.3
303.15 K, x2 = 0.2119 | 1188.2
303.15 K, x2 = 0.3856 | 1162.6
303.15 K, x2 = 0.6109 | 1109.2
303.15 K, x2 = 0.9023 | 933.5
313.15 K, x2 = 0.1058 | 1193.4
313.15 K, x2 = 0.2119 | 1181.4
313.15 K, x2 = 0.3113 | 1167.7
313.15 K, x2 = 0.3856 | 1155.6
313.15 K, x2 = 0.6109 | 1101.9
313.15 K, x2 = 0.7044 | 1066.2
313.15 K, x2 = 0.9512 | 862
323.15 K, x2 = 0.211 | 1174.3
323.15 K, x2 = 0.3066 | 1161.4
323.15 K, x2 = 0.4111 | 1144
323.15 K, x2 = 0.5203 | 1120.6
323.15 K, x2 = 0.703 | 1059.9
323.15 K, x2 = 0.8081 | 1001.3
323.15 K, x2 = 0.9038 | 916.3
